Assay results taken from the supplement of paper PMC12355420.
Structures can show the parent of a compound that is named as a salt. The list shows a part of the results. Most values come without repeats; read them as rough.
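Further: primary screen of an FDA-approved drug library in HeLa reporter cells in 96-well format, CellMask signal normalized to DMSO-treated wells set as 1, under 0.5 deemed highly cytotoxic.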

What follows are compounds tested on HeLa VPS33A reporter cells (assay: relative cell viability (CellMask signal) vs DMSO (fraction of DMSO); HeLa model of a glycosaminoglycan (GAG) storage disease; KI is knock-in and KO knock-out; SDC1 is syndecan 1; higher = less cytotoxic). Conditions: 50 µM; 24 h.
`NCCCC[C@@H]1NC(=O)[C@@H](Cc2ccc(O)cc2)NC(=O)[C@H](CC(=O)O)NC(=O)CNC(=O)[C@H](CCCN=C(N)N)NC1=O` [Cyclo(RGDyK)] gave a relative cell viability of 1.13.
Work on `CC(O)(P(=O)(O)O)P(=O)(O)O` [Etidronate] yielded a relative cell viability of 0.835.
Work on `CCOC(=O)[C@H](CCc1ccccc1)N[C@@H](C)C(=O)N1C(=O)N(C)C[C@H]1C(=O)O` [Imidapril HCl] yielded a relative cell viability of 1.08.
`C1COC(NC(C2CC2)C2CC2)=N1` [Rilmenidine Phosphate] showed a relative cell viability of 1.03.
With `CCCc1nc2c(C)cc(-c3nc4ccccc4n3C)cc2n1Cc1ccc(-c2ccccc2C(=O)O)cc1` [Telmisattan] the relative cell viability was 1.5.
Compound `NC(=O)NCCC[C@H](N)C(=O)O` has a relative cell viability of 1.17.
Work on `C[C@H]1[C@H](NC(=O)/C(=N\OC(C)(C)C(=O)O)c2csc(N)n2)C(=O)N1S(=O)(=O)O` [Aztreonam] yielded a relative cell viability of 1.
`O=C1OC(CN2CCOCC2)CN1/N=C/c1ccc([N+](=O)[O-])o1` (stereo unspecified) [Furaltadone HCl] was tested, and the relative cell viability was 0.878.
With `Cc1cnc(C(=O)NCCc2ccc(S(=O)(=O)NC(=O)NC3CCCCC3)cc2)cn1` [Glipizide] the relative cell viability was 1.11.
For `CC[C@H]1OC(=O)C[C@@H](O)[C@H](C)[C@@H](O[C@@H]2O[C@H](C)[C@@H](O)[C@H](N(C)C)[C@H]2O)[C@@H](CCN2C[C@H](C)C[C@H](C)C2)C[C@@H](C)C(=O)/C=C/C(C)=C/[C@@H]1CO[C@@H]1O[C@H](C)[C@@H](O)[C@@H](OC)[C@H]1OC` [Tilmicosin], the relative cell viability was 1.09.
For `O=C(Nc1cccc2c(=O)cc(-c3nnn[nH]3)oc12)c1ccc(OCCCCc2ccccc2)cc1` [Pranlukast], the relative cell viability was 1.18.
